Experimental findings from PubChem BioAssay AID485344 (National Center for Advancing Translational Sciences (NCATS), 2010) are described below.

Hit rate of the full screen: of about 340,000 compounds, about 6,900 (2%) were called active. Cut-off read from the data, not from the text of the source: active = inhibition above about 30%; inactive = below that, where a call was filed. This is a selection; strong and weak results do not stand in their true shares. The source gives no active or inactive call for entries shown without one.

Chain of UniProt P14416 (P14416 whole entry, looked up): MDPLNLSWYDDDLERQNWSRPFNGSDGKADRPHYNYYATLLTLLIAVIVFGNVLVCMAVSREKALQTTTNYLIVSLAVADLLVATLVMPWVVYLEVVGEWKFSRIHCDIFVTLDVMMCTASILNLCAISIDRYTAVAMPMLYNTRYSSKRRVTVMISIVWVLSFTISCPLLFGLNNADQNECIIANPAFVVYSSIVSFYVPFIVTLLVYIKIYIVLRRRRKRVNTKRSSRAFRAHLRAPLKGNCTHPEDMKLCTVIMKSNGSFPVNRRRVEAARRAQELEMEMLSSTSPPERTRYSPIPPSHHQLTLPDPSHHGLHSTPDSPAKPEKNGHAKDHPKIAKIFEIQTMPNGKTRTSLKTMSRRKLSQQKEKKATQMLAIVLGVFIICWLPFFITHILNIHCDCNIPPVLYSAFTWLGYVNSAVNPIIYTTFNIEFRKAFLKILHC

This assay addresses D(2) dopamine receptor (Homo sapiens) (UniProt P14416). Kind of assay: HTS Assay for Allosteric Antagonists of the Human D2 Dopamine Receptor: Primary Screen for Antagonists. Note: 0% is about no effect. Particulars: HEK293 TREx D2 cells, calcium flux, dopamine EC80; at 10 µM; stronger effect = higher value. An outline of the steps:
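In this primary screen, negative modulation is detected by tracking calcium flux after an EC80 dopamine challenge in inducible HEK293 T-REx D2 cells preexposed to test compound for 180 s.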
In general terms: Calcium assays in cells follow changes in intracellular calcium, usually with a dye or a luminescent sensor.
Broadly, the inhibition is the change of the read-out against control, counted positive when it falls. Turning to `Cc1cc(C)cc(NS(=O)(=O)c2ccc(N3CCCCS3(=O)=O)cc2)c1`, the inhibition came out at 7.05%.
The value for `Cc1ccc(S(=O)(=O)NCC(c2ccc3c(c2)OCO3)N2CCN(c3ccccc3)CC2)cc1` (stereo not given) was active: 67.4%; that for `COc1ccc(CCNC(=O)c2c(C)oc3ncnc(N4CCOCC4)c23)c(OC)c1` was -17.6%.
To `Cc1ccc(S(=O)(=O)Nc2cc3c(cc2C)n(C)c(=O)c(=O)n3C)c(C)c1` belongs 5.59%; to `Cc1cc(C)cc(Nc2cc(C(=O)NC3CCC(C)CC3)c3ccccc3n2)c1` (stereo not given), 0.334%; to `CCCN1C(C(=O)c2ccccc2)=C(OC(=O)c2ccc(OC)cc2)c2ccccc2S1(=O)=O`, 0.616%.
For `CN(Cc1ccc(F)cc1)S(=O)(=O)c1nnc(NC(=O)c2ccccc2Cl)s1`, the inhibition was -1.48%.
To `CCc1nc(-c2cc(S(=O)(=O)N3CCN(c4ccccc4F)CC3)ccc2OC)no1` belongs 18.9%; to `O=C(Cn1c(=O)c(C(F)(F)F)nc2ccccc21)Nc1cccc(Br)c1`, -5.36%.
In the case of `CNc1ccc(-c2nc(-c3ccco3)no2)cc1[N+](=O)[O-]`, the inhibition was -23.1%.
The value for `CCOC(=O)N1CCC(NC(=O)c2cnn(-c3ccc(F)cc3F)c2C2CCN(C(=O)OC(C)(C)C)CC2)CC1` was -0.978%.
To `Cc1ccccc1NC(=O)c1ccc2c(O)c(S(=O)(=O)c3ccccc3)c(=O)[nH]c2c1` belongs -11.7%; to `COc1ccc(-c2nnc(NC(=O)c3ccc(F)cc3)o2)cc1`, active: 33.9%.
The value for `NS(=O)(=O)c1ccc(CCNC(=O)Cn2c(-c3cccs3)cc3ccccc32)cc1` was -18.6%; that for `Cc1cc2c(cc1C)NC(CC(=O)Nc1cccc(Cl)c1)C(=O)N2` (stereo not given) was -1.93%; that for `C=CCc1cccc2cc(C(=O)NCCc3c(C)[nH]c4c(C)cccc34)c(=O)oc12` was -8.3%.
On to `CCN(CC)c1ccc(NC(=O)CCc2nc3cccnc3n2Cc2cccs2)c(C)c1`, for which the inhibition is -11.5%.
The value for `CC1CCCN(CCOCCOc2ccccc2-c2ccccc2)C1` (stereo not given) was active: 80.4%; that for `COc1cccc(C2C(C(=O)Nc3ccc(Cl)cc3)=C(C)Nc3nc4ccccc4n32)c1` (stereo not given) was 11.2%; that for `CCC(C)Sc1oc(-c2ccco2)nc1S(=O)(=O)c1ccc(C)cc1` (stereo not given) was -16.9%.
To `Cc1ccc(CNc2ncnc3c2cnn3-c2ccc(Cl)cc2)cc1` belongs -28%.
As for `COc1cccc(CC(=O)Nc2ccc(-c3nc4ccccc4s3)cc2)c1`, the inhibition was -10.9%.
To `COc1ccccc1C1Nc2c(sc3nc(C)cc(C)c23)C(=O)N1c1ccccc1` (stereo not given) belongs -4.87%.
The value for `COc1ccc2c(c1)c1c(c(=O)n(-c3ccc(C)cc3)c(=O)n1CC(=O)NCc1ccc(C)cc1)n2C` was 1.34%.
To `COc1ccc(Cl)cc1NC(=O)c1nnn(Cc2cccc(C(F)(F)F)c2)c1N` belongs 5.56%; to `CCN1CCN(c2nc(Nc3ccc(C)c(C)c3)nc(N)c2[N+](=O)[O-])CC1`, active: 51.5%.
Take `COc1ccc(OCC(=O)Nc2cc(-c3nc4ccccc4s3)ccc2C)cc1`: the inhibition is 7.05%.
The value for `Cc1cccc(N2CCN(S(=O)(=O)c3ccc(-c4cc(C(F)(F)F)on4)s3)CC2)c1C` was 3.83%; that for `Cc1ccccc1OCC(=O)Nc1ccc2nc(SCC(=O)N3CCc4ccccc43)sc2c1` was -6.45%; that for `O=C(C1CCCN(S(=O)(=O)c2ccc(Br)s2)C1)N1CCN(c2cccc(Cl)c2)CC1` (stereo not given) was 2.96%.
The value for `CCOc1cc2[nH]c(=O)n(CCCCC(=O)N3CCN(c4cccc(Cl)c4)CC3)c(=O)c2cc1OCC` was -18.7%.
To `Cc1ccc(CN2CCN(Cc3cccc4c3OCO4)CC2CCO)cc1` (stereo not given) belongs active: 88.2%; to `CCOc1ccccc1C(=O)NC(C)c1ccc2c(c1)OCO2` (stereo not given), active: 39.9%.
In the case of `CCc1ccc(CN2CCc3nc(Nc4ccccc4)ncc3C2)cc1`, the inhibition stood at 1.61%.
With `Cc1cccc2sc(N(Cc3cccnc3)C(=O)c3cccs3)nc12`, the inhibition is -13.4%.
To `CCOC(=O)c1c(C)[nH]c(CCC(=O)NCc2ccc(F)cc2)c1C` belongs 5.89%; to `CC(=O)Nc1ccc(NC(=O)c2cc3sccc3n2Cc2ccc(F)cc2)cc1`, -6.65%; to `O=C(COC(=O)c1ccc(Cl)c(S(=O)(=O)N2CCCCC2)c1)NCC1CCCCC1`, active: 43.8%.
The value for `COc1cc2[nH]c(=O)n(CCCC(=O)NCc3ccc(Cl)cc3)c(=O)c2cc1OC` was -4.83%; that for `Cc1ccc(NC(=O)C(=O)NCC(c2cccnc2)N2CCN(c3ccccc3F)CC2)cc1Cl` (stereo not given) was -21.4%; that for `CCc1ccccc1Nc1nn2c(=O)c3ccc(C(=O)NC(C)c4ccccc4)cc3nc2s1` (stereo not given) was 6.52%.
The value for `COc1ccccc1NC(=O)c1sc2nc(C)c(C(=O)Nc3ccc(C)cc3C)c(-c3cccs3)c2c1N` was -10.7%; that for `CCOC(=O)c1cc(-c2ccccc2)n(CCCC(=O)Nc2cccc(C)c2C)c1C` was -2.78%; that for `Cc1[nH]c(=O)[nH]c(=O)c1S(=O)(=O)N1CCN(c2ccccc2Cl)CC1` was 0.205%.
In the case of `O=C(O)CCn1c(=O)c2cccn2c2cccnc21`, the inhibition turned out to be 8.47%.
To `COC(=O)c1ccc(NC(=O)CN2C(=O)CCc3cc(S(=O)(=O)N4CCCCC4)ccc32)cc1` belongs -26.5%.
`COc1ccc(CCNC(=O)c2n[nH]c3ccccc23)cc1`: the inhibition was active: 41.8%.
Take `O=C1CC(c2nnc(Cc3ccc(F)cc3Cl)o2)CN1c1ccccc1` (stereo not given): the inhibition is -16.2%.
Regarding `COC(=O)c1ccc(NC(=O)CSCc2ccccc2C)cc1`, the inhibition was active: 34.6%.
For `CC(C)(C)c1ccc(OCC(O)CN2CCN(c3ccccn3)CC2)cc1` (stereo not given), the inhibition was active: 86.6%.
With `O=C(CN1C(=O)COc2ccc(S(=O)(=O)N3CCCC3)cc21)N1CCN(c2ccc(F)cc2)CC1`, the inhibition is -11.9%.
Take `Cc1cccc(-n2c(Cc3ccccc3)nnc2SCc2nc(-c3cccs3)no2)c1`: the inhibition worked out at 2.76%.
To `O=C1c2[nH]nc(-c3ccccc3O)c2C(c2ccccc2F)N1Cc1cccnc1` (stereo not given) belongs 17.3%; to `COCCNc1ccc(-c2nc(-c3ccco3)no2)cc1[N+](=O)[O-]`, 10.5%; to `Cc1cccc(Nc2nnc(-c3ccc(C)c(S(=O)(=O)NCC4CCCO4)c3)c3ccccc23)c1` (stereo not given), -18.1%.
For `CCOC(=O)c1ccc(N2C(=O)c3n[nH]c(-c4ccco4)c3C2c2ccc(O)c(OCC)c2)cc1` (stereo not given), the inhibition was 20.8%.
With `Cc1cc(C)nc(NC(=NCCc2c[nH]c3ccc(Cl)cc23)NC(=O)c2ccccc2C)n1`, the inhibition was -2.67%.
For the molecule `COC(=O)C1=C(C)NC(=O)C1(NC(=O)c1cc(OC)c(OC)c(OC)c1)C(F)(F)F` (stereo not given), the inhibition was -1.86%.
The value for `CCOC(=O)c1c(NC(=O)c2ccc(S(=O)(=O)N3CCC(C)CC3)cc2)sc2c1CCN(CC)C2` was 11.5%; that for `CCOC(=O)c1cc(C)n(CC2CCC(C(=O)Nc3cccc(C)c3)CC2)c1C` (stereo not given) was 12.8%.
As for `C=Cc1ccc(Cn2nc(-c3ccc(C)cc3)ccc2=O)cc1`, the inhibition is 12.3%.
Take `Cc1cccc(-n2cc(-c3ccccc3)c3c(NC4CCCC4)ncnc32)c1`: the inhibition was 5.06%.
Consider `CCOC(=O)c1c(S(=O)(=O)N2CCCC(C(=O)Nc3cc(C)ccn3)C2)c(C)n(C)c1C` (stereo not given), for which the inhibition was -2.5%.
The value for `CCOC(=O)c1ccc(NC(=O)CCC(=O)N2Cc3ccccc3Oc3ncccc32)cc1` was 9.02%; that for `COc1ccc(OC)c(NC(=O)C2CCN(S(=O)(=O)c3ccc4c(c3)CCCC(=O)N4)CC2)c1` was 7.03%; that for `CC(=O)c1ccc(NC(=O)CSc2ccc(-c3cccs3)nn2)cc1` was 4.37%.
To `CCOc1ccc(-c2nc(SCC(=O)c3ccccc3)n[nH]2)cc1` belongs 0.233%.
The value for `CN(C)c1ccc(CNC(=O)c2cnc3sc(N4CCOCC4)nn3c2=O)cc1` was 3.7%; that for `Brc1cccc(-c2nnc(CN3CCN(c4ccccn4)CC3)o2)c1` was 0.709%.
As to `Cc1ccc(S(=O)(=O)Cc2ccc(C(=O)NCCc3ccc(Cl)cc3)o2)cc1`, the inhibition was -6.86%.
To `O=C(Nc1ccc(C(F)(F)F)cc1Cl)c1ccc(Cn2cc(Br)cn2)o1` belongs active: 37.2%; to `COCCCNC(=O)c1cnc2c(-c3ccc(F)cc3)c(C)nn2c1C`, 17.8%.
On to `CCOC(=O)C1CCN(C(c2cccc(F)c2)c2c(O)cc(C)n(Cc3ccco3)c2=O)CC1` (stereo not given), for which the inhibition is 5.12%.
The value for `COc1ccc(-c2noc(N(c3cccc(Cl)c3)c3nc(-c4ccc(OC)c(OC)c4)no3)n2)cc1OC` was -2.84%; that for `CCOc1cccc(C(=O)N2CCC(c3nc4ccccc4s3)CC2)c1` was 10.5%; that for `Cn1nc(-c2ccccc2F)c2cc(C(=O)NCCc3ccc(Cl)cc3)sc21` was -5.96%.
To `O=C(c1ccc(Br)cc1)N1CCN(CCc2ccncc2)CC1` belongs -17.1%; to `O=C(COC(=O)c1cccnc1Cl)c1cccc(Cl)c1`, active: 69.1%.
To `CC(=O)NC1CC(=O)N(c2ccc3c(c2)OCCO3)C1` (stereo not given) belongs 0.924%; to `Cc1ccc(-c2nc3cc(Cl)ccc3o2)cc1NC(=O)c1cc([N+](=O)[O-])ccc1N1CCOCC1`, 15.7%.
`CCC(=O)N1CCc2cc(Br)cc(S(=O)(=O)N3CCC(C(=O)Nc4ccccc4CC)CC3)c21`: the inhibition was 3.28%.
To `COc1cccc(C2CC(=O)Nc3cc4c(cc32)OCO4)c1OC(C)C` (stereo not given) belongs 7.17%; to `Cc1nc(-c2ccccc2)sc1-c1ccc(SCC(=O)Nc2cccc(C(F)(F)F)c2)nn1`, -7.11%.
The value for `CC(C)Oc1ccc(CNC(=O)C2CCN(c3nc4ccccc4nc3C(F)(F)F)CC2)cc1` was 8.41%; that for `CCC1Oc2ccc(C)cc2N(CC(=O)NCc2ccc(OC)cc2)C1=O` (stereo not given) was 23.9%.
To `CCCCN1C(=O)c2[nH]nc(-c3ccccc3O)c2C1c1ccc(C(C)(C)C)cc1` (stereo not given) belongs 4.19%; to `CCCn1c2ccccc2c2cnn(CC(=O)NCc3ccccc3Cl)c(=O)c21`, 24.2%; to `O=C(Nc1cccc(Cl)c1)c1ccc2nc(CCc3ccccc3)oc2c1`, 0.344%.
Take `O=c1oc2ccccc2cc1-c1nnc(Nc2ccc(Cl)cc2Cl)s1`: the inhibition is -3.88%.
The value for `CCOC(=O)c1c(C)n(S(=O)(=O)c2ccc(C)cc2C)c2ccc(NS(=O)(=O)c3ccc(C)cc3C)cc12` was -5.68%; that for `Cc1ccc(C2=Nc3ccccc3N(CC(=O)Nc3ccccc3F)C(=O)C2)cc1C` was 20.3%; that for `COc1ccccc1Nc1sc(C(=O)c2ccc3c(c2)OCO3)c(N)c1S(=O)(=O)c1ccccc1` was -15.6%.
Regarding `CCc1nn(CCCC(=O)N2CCN(c3cc(Cl)ccc3C)CC2)c(=O)c2cc3occc3n12`, the inhibition is -5.79%.
`Fc1ccccc1N1CCN(Cc2cccnc2)CC1`: the inhibition is active: 67.7%.
The value for `COc1ccc(CC(=O)NC2CC(=O)N(c3cccc(F)c3)C2)cc1OC` (stereo not given) was -4.41%.
